Laboratory results from PubChem BioAssay (NCI).
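48-hour exposure; five concentrations; linearly interpolated endpoints. Abbreviation: GI50, concentration required for 50% inhibition of growth. The concentration for full growth arrest is given as TGI.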

Tested on: NCI-H322M lung
Assay: inhibition of tumour cell growth, NCI panel, 48 h

SMILES | TGI [µM] | GI50 [µM]
COC(=O)c1c(C)cccc1C1CN=NC12Cc1c(C)cccc1C2=O (configuration not stated) | > 100 | 
CCCCCCc1ccc(O)cc1O | > 100 | 
COc1ccc(-n2c(C)nc3ccc(N=Cc4ccccc4)cc3c2=O)cc1 | > 100 | 
COc1ccc(OC)c(-c2cn3nc(-c4c[nH]c5ccc(Br)cc45)sc3n2)c1 | 20 | 3.17
Cc1nnc2nc(-c3ccc(Cl)cc3Cl)cc(-c3ccc(Cl)cc3)n12 | > 100 | 
CCCN(CCC)c1ccc(C=O)c(OC)c1 | > 100 | 47.1
Cc1ccc(-c2n[nH]c(=O)n2N)cc1 | > 100 | 
CC(C)Nc1n[nH]c(=O)n1C(C)C | > 100 | 
CN(C)CCNc1ccc2nnn3c4ccc(Cl)cc4c(=O)c1c23 | 16.8 | 
c1ccc(CN2CCC3(CC2)ONC2=NCCN23)cc1 | > 100 | > 100
CCCC(=O)C(CC)/C(CCC(=O)N(Cc1ccccc1)Cc1ccccc1)=N/NC(=O)C[N+](C)(C)C (configuration not stated) | > 100 | 
O=c1cc(-c2ccccc2)oc2cc(OCc3cn(Cc4ccc(F)cc4)nn3)cc(O)c12 | > 100 | > 100
[O-]c1c(-c2ccccc2)[se]c(-c2ccccc2)[n+]1-c1ccccc1 | 16.7 | 
COc1cc(C(CN)N(C)C)cc(OC)c1OC (configuration not stated) | > 100 | 
O=C1CC(CC(O)C(O)CO)CC(=O)N1 (configuration not stated) | > 100 | 
CC(C)C(OC(=O)c1cc(NC(=S)c2ccccc2)ccc1Cl)C(C)C | > 100 | 
O=C1c2ccccc2N2OC3C4CCC(C4)C3C12c1ccccc1 (configuration not stated) | > 100 | 
CN1C(=O)c2cccc3c([N+](=O)[O-])ccc(c23)C1=O | 29.2 | 
O=C(/C=C/c1ccccc1)c1ccc(O)c(CN2CCN(c3cc4c(cc3F)c(=O)c(C(=O)O)cn4C3CC3)CC2)c1 | 31.4 | 1.69

SMILES | TGI [µM] | GI50 [µM]
Cc1occc1C(=S)Nc1ccc(Cl)c(C(=O)OCC2CC2)c1 | > 100 | 
COc1ccc(S(=O)(=O)N2CCCCC2)cc1NC(=O)c1[nH]c(C)c2c1CCCCC2=O | > 100 | 1.55
CC(=O)[CH-]C(=O)c1ccccc1.CC(=O)[CH-]C(=O)c1ccccc1.CC(C)CCCC(C)[C@H]1CCC2[C@@H]3CCC4C[C@@H]([O-])CC[C@]4(C)C3CC[C@@]21C.CC(C)CCCC(C)[C@H]1CCC2[C@@H]3CCC4C[C@@H]([O-])CC[C@]4(C)C3CC[C@@]21C.Cl.[Ti+4] (some centres not stated) | > 25 | > 25
CN([N-]C(=O)CC(=O)[N-]N(C)C(=S)c1ccccc1)C(=S)c1ccccc1.[Cu+2] | 0.225 | 0.0992
COc1cc(C)c(N(C)C(=O)CN(C)C)cc1Nc1nc(Nc2cccc(F)c2C(N)=O)c2cc[nH]c2n1 | > 25 | > 22.3
CP(=O)(CCSc1ccccc1)c1ccccc1 (configuration not stated) | > 100 | 
C#CCCCCC#CC1CCCC1C1=CC(=O)c2ccccc21 (configuration not stated) | 26.4 | 
CC(=O)O[C@H]1CC[C@]2(C)[C@H]3C(=O)C=C4[C@@H]5C[C@](C)(C(=O)N6CCCNCC6)CC[C@]5(C)CC[C@@]4(C)[C@]3(C)CC[C@H]2C1(C)C | 2.93 | 1.57
CC(=O)C1C(=O)C(=O)N(c2ccc(Cl)cc2C)C1=O (configuration not stated) | > 100 | 
c1ccc(N=C2SC(c3ccccc3)CN2C23CC4CC(CC(C4)C2)C3)cc1 (configuration not stated) | > 100 | 
CN[C@@H]1[C@H](O)[C@H](NC)[C@H]2O[C@@]3(O)C(=O)C[C@@H](C)O[C@H]3O[C@@H]2[C@H]1O | > 100 | 
COc1ccc(C(=O)N=C2N(c3ccccc3)C(=Nc3ccccc3)C(=Nc3ccccc3)N2c2ccccc2)cc1 | > 100 | 
CO/N=C(\COc1ccc2c(=O)cc(-c3ccccc3)oc2c1)c1ccc(OC)cc1 | > 100 | > 100
C[C@H](C(=O)N1C(=O)O[C@@H](c2ccccc2)[C@H]1C)[C@H](c1ccccc1)N(Cc1ccccc1)OC(=O)c1ccccc1 | 41.6 | 
COc1ccccc1NC(=O)N/C(N)=N/c1nc2ccccc2s1 | > 100 | 0.257
COc1ccc2c(CCNS(=O)(=O)c3ccccc3)c(C(C)=O)[nH]c2c1[N+](=O)[O-] | > 100 | 
O=C1c2ccccc2C(=O)c2[nH]c(=O)c(/C=N/Nc3ccc([N+](=O)[O-])cc3)nc21 | 4 | 
N=c1nc(N)nc(N)n1-c1ccc(S(N)(=O)=O)cc1 | > 100 | 
COC(=O)c1ccc(/C=N/c2cc(C)nn2-c2ccccc2)cc1 | > 100 | 

SMILES | TGI [µM] | GI50 [µM]
COc1ccc(OC)c2c1C(=O)C(Cl)=C(Cl)C2=O | 58.9 | 
CCOC(=O)c1c(N2CCOCC2)[nH]c(=O)c(C(c2ccc(N(C)C)cc2)c2c(O)c(C(=O)OCC)c(N3CCOCC3)[nH]c2=O)c1O | > 100 | 
CCOc1ccccc1N=NC1C(=O)N(C(=O)CC(=O)Nc2ccccc2Cl)N=C1C (configuration not stated) | > 100 | 
O=C(CCNC(=O)OCc1ccccc1)OCCCNC(=O)OCc1ccccc1 | > 100 | 
CCC1(c2ccncc2)CCC(=O)NC1=O (configuration not stated) | > 100 | 
CCCCCCCCOC(=O)c1cc(O)c(O)c(O)c1 | 30.7 | 5.12
S=C(S)NCCCn1ccnc1 | > 100 | 
Cc1c2ccccc2nc2[nH]c3ccncc3c12 | 90.1 | 
CNC(=S)N/N=C(\C)c1ccc(OC)cc1O | > 100 | 
CCOC(=O)C1C(=O)CC(C)(O)C(C(=O)OCC)C1c1ccc(O)c(OC)c1 (configuration not stated) | > 100 | 
O=C1C=CC(=O)c2c(O)c(Nc3ccc(OC(F)(F)F)cc3)c(Cl)c(O)c21 | 2.23 | 
N#C/C(=C/c1cccs1)c1cccs1 | > 100 | > 100
CC(C)NCCCNC1=C(Cl)C(=O)c2ccccc2C1=O | 33.3 | 15.9
S=C(NNC1=NCCCCN1)Nc1ccccc1 | > 100 | 
OC(CCN1CCN(CCOC(c2ccc(F)cc2)c2ccc(F)cc2)CC1)c1ccccc1 (configuration not stated) | 29.5 | 
CC(=O)C1CC2(c3ccccc3)C(=O)c3ccccc3N2O1 (configuration not stated) | > 100 | 
Nc1nc(N)c2ncn(Cc3c(Cl)cccc3Cl)c2n1 | > 100 | 
COc1cccc2c1C(=O)c1c(O)c3c(c(O)c1C2=O)C[C@@](O)(C(=O)COC(=O)c1cccnc1)C[C@@H]3OC1CC(N)C(O)C(C)O1 (some centres not stated) | 3.75 | 0.365
